Experimental data reported in the supplement of paper PMC12462457.
Where a name gives a salt, the structure may show the parent alone. ± gives the standard deviation of the averaged measurements. Some of the results follow.

System: OVCAR8
Assay: cell count relative to DMSO vehicle (fold change); OVCAR8 is a high-grade serous ovarian cancer line and CX-5461 an RNA polymerase I inhibitor; higher = more surviving senescent cells (less killing)
Details: senescence inducer: CX-5461 3 µM 48 h, then 6 d recovery (CX senescent), exposure time 24 h

| SMILES | cell count (compound dose 1 µM) | cell count (compound dose 5 µM) |
| --- | --- | --- |
| Cc1ccc(NCCN(C)CCNc2ccnc3cc(Cl)ccc23)c2c(=O)c3ccccc3sc12 | 0.916 ± 0.16 | 1.04 ± 0.041 |
| N#CCCCSC(=N)N [Kevetrin (hydrochloride)] | 1.1 ± 0.11 | 1.13 ± 0.089 |
| CCNC(=O)c1noc(-c2cc(C(C)C)c(O)cc2O)c1-c1ccc(CN2CCOCC2)cc1 [Luminespib] | 0.995 ± 0.035 | 0.871 ± 0.053 |
| NS(=O)(=O)Cc1noc2ccccc12 [Zonisamide] | 1.11 ± 0.29 | 1.15 ± 0.12 |
| CN(C)C(=O)c1cc2cnc(Nc3ccc(NC(=O)CCCCCCCN=C=S)cc3)nc2n1C1CCCC1 | 1.02 ± 0.14 | 0.709 ± 0.0014 |
| O=C1Nc2ccc(I)cc2/C1=C/c1cc(Br)c(O)c(Br)c1 | 1.07 ± 0.071 | 1.03 ± 0.27 |
| CON(C)C(=O)N1N=C(c2cc(F)ccc2F)S[C@@]1(CCCN)c1ccccc1 [Filanesib] | 0.981 ± 0.12 | 0.929 ± 0.22 |
| NC(=O)N1c2ccccc2CC(=O)c2ccccc21 | 1.03 ± 0.1 | 1.05 ± 0.087 |
| COC(=O)[C@]12OC[C@]34[C@H]([C@@H](O)[C@@H]1O)[C@@]1(C)CC(=O)C(O)=C(C)[C@@H]1C[C@H]3OC(=O)[C@H](OC(=O)C=C(C)C)[C@@H]24 [Brusatol] | 0.856 ± 0.2 | 0.586 ± 0.13 |
| O=c1[nH]c(=O)n([C@H]2C[C@H](O)[C@@H](CO)O2)cc1C(F)(F)F | 1.01 ± 0.15 | 0.947 ± 0.25 |
| COC(=O)c1ccc(O)c(O)c1 [Methyl 3,4-dihydroxybenzoate] | 1.18 ± 0.22 | 1.21 ± 0.23 |
| COc1ccc2c3c1O[C@H]1C[C@@H](O)C=C[C@@]31CCN(C)C2 [Galanthamine] | 1.02 ± 0.21 | 1.04 ± 0.053 |
| O=C(NNc1ccccc1)c1ccncc1 [PluriSIn 1] | 1.16 ± 0.15 | 0.993 ± 0.12 |
| COc1cc(OC)cc(N2CCN(C(=O)Nc3nc4cc(F)ccc4nc3OC)CC2)c1 [Supinoxin] | 1.15 ± 0.083 | 1.201 ± 0.0085 |
| COc1cc2c(cc1OC)[C@@H]1C(=O)c3ccc4c(c3O[C@@H]1CO2)C=CC(C)(C)O4 [Deguelin] | 1.14 ± 0.17 | 1.1 ± 0.25 |
| C=C1CCC[C@]2(C)C[C@@H]3OC(=O)C(C)=C3C[C@@H]12 [Atractylenolide II] | 1.02 ± 0.11 | 0.988 ± 0.14 |
| C=C(C)[C@@H]1CC[C@]2(C)CC[C@]3(C)[C@H](CC[C@@H]4[C@@]5(C)CC[C@H](O)C(C)(C)[C@@H]5CC[C@]43C)[C@@H]12 | 1.05 ± 0.21 | 1.13 ± 0.17 |
| Oc1cc(O)cc(/C=C/c2ccc(O)c(O)c2)c1 [Piceatannol] | 1.21 ± 0.1 | 1.31 ± 0.18 |
| CCN1CCN(c2ccc(Nc3cc(N(C)C(=O)Nc4c(Cl)c(OC)cc(OC)c4Cl)ncn3)cc2)CC1 [Infigratinib] | 1.19 ± 0.25 | 1.17 ± 0.25 |
| CC[C@@]1(O)C(=O)OCc2c1cc1n(c2=O)Cc2cc3c(CN(C)C)c(O)ccc3nc2-1 [Topotecan (Hydrochloride)] | 0.807 ± 0.025 | 1.02 ± 0.057 |
| O=c1[nH]c(=S)[nH]c2nc(-c3ccccc3)c(-c3ccccc3)nc12 [SCR7 pyrazine] | 0.987 ± 0.15 | 0.978 ± 0.14 |
| COc1cc2ncnc(Nc3ccc(O)c(Br)c3)c2cc1OC | 1.11 ± 0.069 | 1.07 ± 0.091 |
| C[C@@H]1O[C@@H](O[C@H]2C(=O)c3c(O)cc(O)cc3O[C@@H]2c2ccc(O)c(O)c2)[C@H](O)[C@H](O)[C@H]1O [Astilbin] | 1.06 ± 0.18 | 1.07 ± 0.098 |
| CC[C@H](C)C(=O)O[C@H]1C[C@H](O)C=C2C=C[C@H](C)[C@H](CC[C@@H](O)C[C@@H](O)CC(=O)O)[C@H]21 [Pravastatin (sodium)] | 1.1 ± 0.17 | 1.18 ± 0.27 |

| SMILES | cell count (compound dose 1 µM) | cell count (compound dose 5 µM) |
| --- | --- | --- |
| Cc1cc([N+](=O)[O-])c(NS(=O)(=O)c2cccc(C(=O)O)c2)cc1-c1cccnc1 [Alofanib] | 1.05 ± 0.093 | 1.02 ± 0.044 |
| O=S1(=O)CCN(CN2CCS(=O)(=O)NC2)CN1 [Taurolidine] | 1.16 ± 0.12 | 1.1 ± 0.05 |
| Cc1nc(C)c(C)nc1C [Tetramethylpyrazine] | 1.03 ± 0.07 | 1.15 ± 0.16 |
| Cc1ccc(S(=O)(=O)/C=C/C#N)cc1 | 1.08 ± 0.14 | 0.389 ± 0.41 |
| Nc1ccccc1NC(=O)c1ccc(CNc2nccc(-c3cccnc3)n2)cc1 [Mocetinostat (MGCD0103)] | 1.16 ± 0.039 | 1.232 ± 0.0085 |
| O=C1C(O)=C(O)C(=O)C(O)=C1O | 1.1 ± 0.15 | 1.12 ± 0.058 |
| Cc1ccc(C(=O)N(CCCN)[C@@H](c2nc3cc(Cl)ccc3c(=O)n2Cc2ccccc2)C(C)C)cc1 [Ispinesib] | 1.1 ± 0.011 | 1.07 ± 0.14 |
| C[C@@H]1O[C@@H](O[C@H]2[C@H](O[C@H]3CC[C@@]4(C)[C@@H](CC[C@]5(C)[C@@H]4CC=C4[C@@H]6CC(C)(C)CC[C@]6(C(=O)O)CC[C@]45C)[C@]3(C)CO)OC[C@H](O[C@@H]3O[C@H](CO)[C@@H](O)[C@H](O)[C@H]3O)[C@@H]2O)[C@H](O)[C@H](O)[C@H]1O [Pulsatilla saponin D] | 1.09 ± 0.089 | 0.004 |
| CC(C)c1cnn2c(NCc3ccccc3)cc(NC[C@H]3CCNC[C@@H]3O)nc12 [Samuraciclib (hydrochloride)] | 0.95 ± 0.011 | 1.13 ± 0.12 |
| C=C1CCC[C@]2(C)C[C@]3(O)OC(=O)C(C)=C3C[C@@H]12 [Atractylenolide III] | 1.06 ± 0.22 | 0.933 ± 0.18 |
| O=c1c(O[C@@H]2O[C@@H](CO)[C@H](O)[C@H]2O)c(-c2ccc(O)c(O)c2)oc2cc(O)cc(O)c12 [Avicularin] | 1.23 ± 0.29 | 1.13 ± 0.36 |
| COc1cc2ncnc(Nc3ccc(F)c(Cl)c3)c2cc1NC(=O)/C=C/CN1CCCCC1 | 0.964 ± 0.088 | 0.834 ± 0.018 |
| CC(=O)Oc1cc(C)c(OC(C)=O)c2ccccc12 [Vitamin K4] | 1.11 ± 0.26 | 1.1 ± 0.28 |
| COCCCOc1ccnc(C[S+]([O-])c2nc3ccccc3[nH]2)c1C (centres undefined) [Rabeprazole (sodium)] | 1.126 ± 0.0028 | 1.08 ± 0.14 |
| CC(C)=CCC/C(C)=C\CO [Nerol] | 0.61 ± 0.024 | 0.492 ± 0.052 |
| COc1nc(C)cnc1NS(=O)(=O)c1cccnc1-c1ccc(-c2nnco2)cc1 [Zibotentan] | 1.05 ± 0.23 | 1.03 ± 0.05 |
| O=C(NCc1ccc2c(c1)OCO2)c1c(Cl)cccc1Cl | 1.13 ± 0.17 | 1.13 ± 0.18 |
| Nc1ccccc1NC(=O)CCCCCCC(=O)Nc1ccccc1 | 1.24 ± 0.19 | 1.24 ± 0.23 |
| NC(=O)Nc1sc(-c2ccc(F)cc2)cc1C(N)=O | 1.181 ± 0.0057 | 1.08 ± 0.019 |
| COC(=O)CCCCC(=O)NCCN1C(=O)c2cccc3c(Sc4ccc(Br)cc4)ccc(c23)C1=O | 1.01 ± 0.17 | 1.01 ± 0.097 |
| COc1cc2c(cc1OC)-c1c(C)c3ccc(OC)c(OC)c3c[n+]1CC2 [Dehydrocorydaline] | 1.2 ± 0.15 | 1.16 ± 0.22 |
| Cc1nn(C)c(COc2ccc(N3CCN(S(=O)(=O)N(C)C)CC3)cc2)c1-c1cccc2c(CCCOc3cccc4ccccc34)c(C(=O)O)n(CCN3CCOCC3)c12 | 1.16 ± 0.21 | 1.21 ± 0.35 |
| C[C@@H]1O[C@@H](OC[C@H]2O[C@@H](Oc3c(-c4ccc(O)c(O)c4)oc4cc(O)cc(O)c4c3=O)[C@H](O)[C@@H](O)[C@@H]2O)[C@H](O)[C@H](O)[C@H]1O [Rutin] | 1.06 ± 0.1 | 1.2 ± 0.24 |
